# In the supplement of paper PMC8728848:
# Some of the results follow.
# B1: StcE (Escherichia coli), O82882.2 (protein)
# chain: ADNNSAIYFNTSQPINDLQGSLAAEVKFAQSQILPAHPKEGDSQPHLTSLRKSLLLVRPVKADDKTPVQVEARDDNNKILGTLTLYPPSSLPDTIYHLDGVPEGGIDFTPHNGTKKIINTVAEVNKLSDASGSSIHSHLTNNALVEIHTANGRWVRDIYLPQGPDLEGKMVRFVSSAGYSSTVFYGDRKVTLSVGNTLLFKYVNGQWFRSGELENNRITYAQHIWSAELPAHWIVPGLNLVIKQGNLSGRLNDIKIGAPGELLLHTIDIGMLTTPRDRFDFAKDKEAHREYFQTIPVSRMIVNNYAPLHLKEVMLPTGELLTDMDPGNGGWHSGTMRQRIGKELVSHGIDNANYGLNSTAGLGENSHPYVVAQLAAHNSRGNYANGIQVHGGSGGGGIVTLDSTLGNEFSHEVGHNYGLGHYVDGFKGSVHRSAENNNSTWGWDGDKKRFIPNFYPSQTNEKSCLNNQCQEPFDGHKFGFDAMAGGSPFSAANRFTMYTPNSSAIIQRFFENKAVFDSRSSTGFSKWNADTQEMEPYEHTIDRAEQITASVNELSESKMAELMAEYAVVKVHMWNGNWTRNIYIPTASADNRGSILTINHEAGYNSYLFINGDEKVVSQGYKKSFVSDGQFWKERDVVDTREARKPEQFGVPVTTLVGYYDPEGTLSSYIYPAMYGAYGFTYSDDSQNLSDNDCQLQVDTKEGQLRFRLANHRANNTVMNKFHINVPTESQPTQATLVCNNKILDTKSLTPAPEGLTYTVNGQALPAKENEGCIVSVNSGKRYCLPVGQRSGYSLPDWIVGQEVYVDSGAKAKVLLSDWDNLSYNRIGEFVGNVNPADMKKVKAWNGQYLDFSKPRSMRVVYK
# What was measured:
# Test in all cases: glycan array binding signal (z-score within array); higher = stronger binding
# Conditions in all cases: glycan notation: IUPAC condensed, linker removed
# [1] = biological target: Man(a1-2)Man(a1-2)Man(a1-3)Man
# Summary of the method: (§1)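 From the Consortium for Functional Glycomics database, 3228 arrays were curated, keeping only those whose protein sequence was available. Binding is given as a within-array Z-score averaged across arrays sharing a protein sequence and across linkers. Negative Z-scores can be read as non-binding.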
# [2] = biological target: Man(a1-2)Man(a1-2)Man(a1-6)[Man(a1-3)]Man
# Summary of the method: as §1
# Man(a1-2)Man(a1-3)Man = biological target: Man(a1-2)Man(a1-3)Man
# Summary of the method: as §1
# [3] = biological target: Man(a1-2)Man(a1-3)[Man(a1-2)Man(a1-6)]Man
# Summary of the method: as §1
# [4] = biological target: Man(a1-2)Man(a1-3)[Man(a1-2)Man(a1-6)]Man(a1-6)[Man(a1-2)Man(a1-2)Man(a1-3)]Man
# Summary of the method: as §1
# [5] = biological target: Man(a1-2)Man(a1-3)[Man(a1-2)Man(a1-6)]Man(a1-6)[Man(a1-2)Man(a1-2)Man(a1-3)]Man(b1-4)GlcNAc(b1-4)GlcNAc
# Summary of the method: as §1
# [6] = biological target: Man(a1-2)Man(a1-3)[Man(a1-2)Man(a1-6)]Man(a1-6)[Man(a1-3)[Man(a1-6)]Man(a1-6)]Man(b1-4)GlcNAc(b1-4)GlcNAc
# Summary of the method: as §1
# [7] = biological target: Man(a1-2)Man(a1-3)[Man(a1-6)]Man(a1-6)[Man(a1-2)Man(a1-3)]Man(b1-4)GlcNAc(b1-4)GlcNAc
# Summary of the method: as §1
# [8] = biological target: Man(a1-2)Man(a1-6)[Man(a1-3)]Man(a1-6)[Man(a1-2)Man(a1-2)Man(a1-3)]Man
# Summary of the method: as §1
# [9] = biological target: Man(a1-2)Man(a1-6)[Man(a1-3)]Man(a1-6)[Man(a1-2)Man(a1-2)Man(a1-3)]Man(b1-4)GlcNAc(b1-4)GlcNAc
# Summary of the method: as §1
# Man(a1-3)[Man(a1-6)]Man = biological target: Man(a1-3)[Man(a1-6)]Man
# Summary of the method: as §1
# [10] = biological target: Man(a1-3)[Man(a1-6)]Man(a1-6)[Man(a1-2)Man(a1-3)]Man(b1-4)GlcNAc(b1-4)GlcNAc
# Summary of the method: as §1
# [11] = biological target: Man(a1-3)[Man(a1-6)]Man(a1-6)[Man(a1-3)]Man
# Summary of the method: as §1
# [12] = biological target: Man(a1-3)[Man(a1-6)]Man(a1-6)[Man(a1-3)]Man(b1-4)GlcNAc(b1-4)GlcNAc
# Summary of the method: as §1
# [13] = biological target: Man(a1-3)[Man(a1-6)]Man(b1-4)GlcNAc(b1-4)GlcNAc
# Summary of the method: as §1
# [14] = biological target: Man(a1-3)[Man(a1-6)]Man(b1-4)GlcNAc(b1-4)[Fuc(a1-6)]GlcNAc
# Summary of the method: as §1
# Man(a1-6)Man = biological target: Man(a1-6)Man
# Summary of the method: as §1
# Man(b1-4)GlcNAc = biological target: Man(b1-4)GlcNAc
# Summary of the method: as §1
# Neu5Ac(a2-3)Gal = biological target: Neu5Ac(a2-3)Gal
# Summary of the method: as §1
# [15] = biological target: Neu5Ac(a2-3)Gal(b1-3)GalNAc
# Summary of the method: as §1
# [16] = biological target: Neu5Ac(a2-3)Gal(b1-3)GalNAc(b1-3)Gal(a1-4)Gal(b1-4)Glc
# Summary of the method: as §1
# [17] = biological target: Neu5Ac(a2-3)Gal(b1-3)GalNAc(b1-4)[Neu5Ac(a2-3)]Gal(b1-4)Glc
# Summary of the method: as §1
# [18] = biological target: Neu5Ac(a2-3)Gal(b1-3)GalNAc(b1-4)[Neu5Ac(a2-8)Neu5Ac(a2-3)]Gal(b1-4)Glc
# Summary of the method: as §1
# [19] = biological target: Neu5Ac(a2-3)Gal(b1-3)GalNAc6S
# Summary of the method: as §1
# [20] = biological target: Neu5Ac(a2-3)Gal(b1-3)GlcNAc
# Summary of the method: as §1
# [21] = biological target: Neu5Ac(a2-3)Gal(b1-3)GlcNAc(b1-2)Man(a1-3)[GlcNAc(b1-4)][Neu5Ac(a2-3)Gal(b1-3)GlcNAc(b1-2)Man(a1-6)]Man(b1-4)GlcNAc(b1-4)GlcNAc
# Summary of the method: as §1
# [22] = biological target: Neu5Ac(a2-3)Gal(b1-3)GlcNAc(b1-3)Gal(b1-3)GlcNAc
# Summary of the method: as §1
# [23] = biological target: Neu5Ac(a2-3)Gal(b1-3)GlcNAc(b1-3)Gal(b1-4)GlcNAc
# Summary of the method: as §1
# [24] = biological target: Neu5Ac(a2-3)Gal(b1-3)GlcNAc(b1-3)GalNAc
# Summary of the method: as §1
# [25] = biological target: Neu5Ac(a2-3)Gal(b1-3)GlcNAc(b1-6)GalNAc
# Summary of the method: as §1
binder,measurement,setting,value
B1,glycan array binding signal (z-score),[1],-0.442
same,glycan array binding signal (z-score),[2],0.186
same,glycan array binding signal (z-score),Man(a1-2)Man(a1-3)Man,-0.346
same,glycan array binding signal (z-score),[3],0.173
same,glycan array binding signal (z-score),[4],-0.151
same,glycan array binding signal (z-score),[5],-0.485
same,glycan array binding signal (z-score),[6],0.227
same,glycan array binding signal (z-score),[7],-0.065
same,glycan array binding signal (z-score),[8],-0.148
same,glycan array binding signal (z-score),[9],-0.091
same,glycan array binding signal (z-score),Man(a1-3)[Man(a1-6)]Man,-0.261
same,glycan array binding signal (z-score),[10],-0.153
same,glycan array binding signal (z-score),[11],-0.115
same,glycan array binding signal (z-score),[12],-0.198
same,glycan array binding signal (z-score),[13],-0.151
same,glycan array binding signal (z-score),[14],-0.049
same,glycan array binding signal (z-score),Man(a1-6)Man,-0.154
same,glycan array binding signal (z-score),Man(b1-4)GlcNAc,-0.124
same,glycan array binding signal (z-score),Neu5Ac(a2-3)Gal,-0.19
same,glycan array binding signal (z-score),[15],-0.161
same,glycan array binding signal (z-score),[16],-0.081
same,glycan array binding signal (z-score),[17],-0.173
same,glycan array binding signal (z-score),[18],-0.118
same,glycan array binding signal (z-score),[19],0.499
same,glycan array binding signal (z-score),[20],-0.187
same,glycan array binding signal (z-score),[21],-0.142
same,glycan array binding signal (z-score),[22],-0.157
same,glycan array binding signal (z-score),[23],-0.157
same,glycan array binding signal (z-score),[24],-0.155
same,glycan array binding signal (z-score),[25],-0.155
